This is one part of the list.
test system: S. aureus RN4220; assay: growth inhibition call (relative growth <= 0.2); details: 50 µM

Growth inhibition call, inactive:
C[C@H](CO)N1C[C@H](C)[C@@H](CN(C)S(C)(=O)=O)Oc2ccc(NS(C)(=O)=O)cc2CC1=O, O=C(C[C@@H]1C=C[C@@H](NC(=O)C2CCC2)[C@@H](CO)O1)NCCCN1CCOCC1, COc1cc2c(cc1OC)C(=O)OC2, Cc1noc(C)c1NC(=O)N(C)C[C@H]1Oc2ccc(NS(=O)(=O)c3ccccc3)cc2C(=O)N([C@H](C)CO)C[C@H]1C, C[C@@H]1CN([C@H](C)CO)C(=O)Cc2cc(NC(=O)CCCCCC(=O)Nc3ccccc3N)ccc2O[C@H]1CN(C)Cc1ccc(Cl)c(Cl)c1, CC(=O)Nc1c(I)cc(I)c(C(=O)O)c1I, Cn1c(S(=O)(=O)CC(N)=O)nc2ccccc21, COc1ccc(COCC23Oc4ccccc4[C@H]([C@H]2COC(=O)NCCCCCC(=O)NO)n2c(c4c(c(C(C)=O)c2=O)C(=O)N(C)C4=O)N3C)cc1, C[C@H](CO)N1C[C@H](C)[C@H](CN(C)C(=O)Nc2ccc(N3CCCCC3)cc2)OCc2cn(nn2)CCCC1=O, COCCOC(=O)N1C(=O)[C@@]2(c3cc(C#CC4(O)CCCCCC4)ccc31)[C@H](c1ccc(OCCO)cc1)N1[C@H](c3ccccc3)[C@H](c3ccccc3)OC(=O)[C@H]1[C@@H]2C(=O)N1CCCCCCC1, C[C@H]1CN([C@@H](C)CO)C(=O)c2cc(NC(=O)Cn3cnnn3)ccc2O[C@H]1CN(C)S(=O)(=O)c1ccccc1, C[C@@H]1CCCCO[C@H](CN(C)Cc2ccc(C(=O)O)cc2)[C@@H](C)CN([C@@H](C)CO)C(=O)c2cc(NC(=O)Nc3ccccc3)ccc2O1, Cc1coc(C)c1C(=O)O[C@@H]1O[C@@H](C)[C@H](O)[C@@H](O)[C@H]1O, CCn1cc(C(=O)N2CCN(C)CC2)c(=O)c2cc(S(=O)(=O)N(C)C)ccc21, CC(C)CCCC(C)C1CCC2C3CCC4CC(=O)CCC4(C)C3CCC12C (centres undefined), C[C@@H]1CN([C@H](C)CO)C(=O)Cc2cc(NC(=O)Nc3ccc(C(F)(F)F)cc3)ccc2O[C@H]1CN(C)Cc1ccc2c(c1)OCO2, COCCN1CCC(CN)CC1, C=C1CCC(O)CC1=CC=C1CCCC2(C)C1CCC2C(C)C=CC(C)C(C)C (centres undefined), COc1ccccc1C#Cc1cnc2c(c1)C(=O)N([C@H](C)CO)C[C@@H](C)[C@@H](CN(C)S(=O)(=O)c1cn(C)cn1)O2, Cc1cccc(CN2CCN(C(c3ccccc3)c3ccc(Cl)cc3)CC2)c1.Cl.Cl (centres undefined), C[C@@H]1CN([C@@H](C)CO)C(=O)c2cc(NC(=O)c3ccncc3)ccc2O[C@@H]1CN(C)Cc1ccc(C(=O)O)cc1, COCC#Cc1cnc2c(c1)C(=O)N([C@@H](C)CO)C[C@@H](C)[C@@H](CN(C)S(=O)(=O)c1cccc(OC)c1)O2, CN(C)CCCNC(=O)C[C@@H]1CC[C@H]2[C@@H](COC[C@@H](O)CN2S(=O)(=O)c2ccccc2)O1, O=C(NO)c1ccc(C(=O)N/N=C/c2ccc(B(O)O)cc2)cc1, CCS(=O)(=O)NCC[C@@H]1CC[C@@H](NC(=O)C2CCOCC2)[C@H](CO)O1, CC(C)NC(=O)N(C)C[C@@H]1Oc2ccc(NC(=O)Cn3cnnn3)cc2C(=O)N([C@@H](C)CO)C[C@@H]1C, C[C@H]1CCCCO[C@H](CN(C)S(=O)(=O)c2ccc(F)cc2)[C@@H](C)CN([C@@H](C)CO)C(=O)c2cc(NS(C)(=O)=O)ccc2O1, C[C@@H]1CN([C@H](C)CO)C(=O)c2cc(NS(=O)(=O)c3ccc(F)cc3)ccc2O[C@H]1CN(C)C(=O)Nc1cccc2ccccc12, CN1C(=O)N[C@@H]2c3ccccc3O[C@@]1(COC(=O)NCCCCCC(=O)NO)[C@@H]2COC(=O)c1ccccc1, Cc1noc(C)c1S(=O)(=O)Nc1ccc2c(c1)CC(=O)N([C@@H](C)CO)C[C@@H](C)[C@H](CN(C)Cc1ccc3c(c1)OCO3)O2, C[C@H]1CN([C@@H](C)CO)C(=O)Cc2cc(NC(=O)Nc3cccc(C(F)(F)F)c3)ccc2O[C@H]1CN(C)S(=O)(=O)c1ccc(Oc2ccccc2)cc1, COc1ccc(NC(=O)Nc2cccc3c2O[C@@H](CN(C)Cc2ccc(C(F)(F)F)cc2)[C@@H](C)CN([C@H](C)CO)C3=O)cc1, C[C@@H]1CN([C@H](C)CO)C(=O)Cc2cc(NC(=O)Cc3cn(C)c4ccccc34)ccc2O[C@H]1CN(C)Cc1ccc(-c2ccccc2)cc1, C[C@@H]1O[C@H](O[C@@H]2[C@H](Oc3c(-c4ccc(O)cc4)oc4cc(O)cc(O)c4c3=O)O[C@H](CO[C@@H]3O[C@H](C)[C@@H](O)[C@H](O)[C@@H]3O)[C@@H](O)[C@@H]2O)[C@@H](O)[C@H](O)[C@@H]1O, C[C@@H]1CN([C@H](C)CO)C(=O)c2cccc(NC(=O)c3cnccn3)c2O[C@@H]1CN(C)Cc1ccc(C(=O)O)cc1, C[C@H]1CN([C@@H](C)CO)C(=O)c2cc(NC(=O)c3ccncc3)ccc2O[C@@H]1CN(C)Cc1ccc(C(=O)O)cc1, C[C@H](CO)N1C[C@H](C)[C@@H](CN(C)C(=O)N[C@H](C)c2ccccc2)OCc2ccccc2-c2ccccc2C1=O, CC(C)CC#Cc1ccc2c(c1)O[C@@H](CN(C)C(=O)c1ccncc1)[C@H](C)CN([C@H](C)CO)S2(=O)=O, C[C@@H]1CCCCO[C@@H](CN(C)Cc2ccc(C(=O)O)cc2)[C@H](C)CN([C@H](C)CO)C(=O)c2cc(NS(=O)(=O)c3cccs3)ccc2O1

From the antibiotic and cytotoxicity screens of Wong et al. (2023)
